# Experimental data published in PubChem BioAssay AID1508642 (National Center for Advancing Translational Sciences (NCATS), 2021).
# The campaign covered roughly 43,000 compounds. About 200 (0.47%) were called active. Roughly 12% stayed inconclusive and do not appear here. The call rests on the fitted dose curve; in most records, active means well fitted cell-killing curve with a large enough effect; inconclusive means small, poorly fitted or top-dose-only effect, or effect the other way; inactive means flat fitted curve, though single readings scatter. The list shows a part of the results.
# Experiment: Cell viability qHTS assay in S16 Pmp22-F2sN cells; further: nearly all actives have a fitted effect of over 65% in size
# Settings: S16 Pmp22-F2sN Schwann cells (luciferase reporters placed in the Pmp22 gene) viability, CellTiter-Glo, 24 h; series mostly up to 57.5 µM; activity change, negative = cytotoxicity: at the top concentration
# Source text: Assay Provider: Jim Inglese Ph.D. National Center for Advancing Translational Science, National Institutes of Health, Rockville, MD CMT is a heterogeneous group of neurological disorders that affect approximately 1 in 2,500 people. In particular, the most common form of CMT, CMT1A is genetically linked to the duplication of the PMP22 gene which leads to Schwann cell overexpression, thus manifesting itself as a typical case of dose-sensitive diseases. To identify small molecule compounds that can mediate the expression of PMP22 we developed a phenotypic assay screening strategy by utilizing genome editing techniques to construct Schwann cell lines containing novel reporter technology to monitor the transcriptional or translational regulation of PMP22. For high sensitivity we use a bioluminescent reporter system embedded in the 3' UTR of the PMP22 gene (S16(c9) Pmp22-F2sN) to identify compounds that inhibit gene expression. […] We can further discriminate the effect of all transcriptionally active molecules on PMP22 translation or stability with an assay that incorporates a short NLuc peptide (HiBiT) at the C-terminus of expressed PMP22 (S16(f8) PMP22-HiBiT) allowing alpha complementation and luminescence detection of membrane-associated PMP22 protein. These assays were screened against the NCATS Sytravon Library Collection. Miniaturization of these assays to 1536-well plate format for quantitative high throughput screening (qHTS) yielded rich data sets immediately from the qHTS assay (S16(c9) Pmp22-F2sN), when compared with data from a cell viability assay (Cell TiterGlo) to identify compounds that decreased the output signals through cellular toxicity to streamline the selection process of actives for subsequent characterization using the HiBiT assay (S16(f8) PMP22-HiBiT).
# Cell viability assay in S16 Pmp22-F2sN cells PROTOCOL TABLE (format as described by Inglese J, Shamu CE and Guy RK. 2007) SEQUENCE No. (e.g., 1, 2, 3, etc.); […] (e.g., Cells, Incubation, Reagent, etc.); VALUE and DESCRIPTION. 1. Cells. Add 500-1,000 cells in 4 uL in growth media (DMEM High Glucose, No Phenol Red media + 10% heat-inactivated FBS + 1% Pen/Strep supplemented media) per well into Greiner 1536-well white/solid bottom high base, TC-treated plates. 2. Compounds. Library compounds and controls added at 23nL per well, transferred by Pin Tool. 3. Incubation. Incubate plates at 37C, 5% CO2, 95% RH for 24 h. 4. Reagent. Add 3uL CellTiter-Glo per well of Greiner 1536-well plates. 5. Incubation. Incubate plates at room temperature for 15 min., protect from light. 6. Detector. FLuc luminescence measured using CCD-based camera (Viewlux). NOTES (numbers refer to Sequence numbers above; values are from representative experiments) 6. Luminescence Read: Clear filter; Exposure = 1 sec, Gain = High, Speed = Slow, Binning = 2X REFERENCES: 1. Inglese J, Shamu CE and Guy RK, Reporting data from high throughput screening of small molecule libraries, Nature Chemical Biology, 2007, 3(8): 438-441. doi.org/10.1038/nchembio0807-438 2. Yasgar A, Shinn P, Jadhav A, Auld DS, Michael S, Zheng W, Austin CP, Inglese J and Simeonov A, Compound Management for Quantitative High-Throughput Screening. J. Assoc. Lab. Auto., 2008, 13: 79-89. doi: 10.1016/j.jala.2007.12.004
# On the % scale 0 is the no-effect control and ±100 the full control effect.
row,SMILES,"activity change, negative = cytotoxicity"
1,COc1ccc(NC(=O)Cn2c(SCc3cc(C)ccc3C)nc3ccncc32)c(OC)c1OC,inactive: -13.8%
2,COc1ccc2c(CNCc3cccs3)c(C(=O)O)n(Cc3ccccc3)c2c1,inactive: 2.57%
3,CCOc1ccccc1NC(=O)Cn1cc(C(=O)c2cccc(OC)c2)c(=O)c2ccc(C)nc21,inactive: 18.9%
4,O=C(Cn1c(=O)c2cccn2c2ccccc21)NCCc1ccccc1,inactive: -2.55%
5,CCOc1cc(CNC(=O)C2COc3ccccc3C2)cc(OCC)c1OCC (stereo not drawn),inactive: 4.18%
6,Fc1ccc(-c2noc3ncnc(NCCc4ccccc4)c23)cc1,inactive: -3.76%
7,COc1ccc(Nc2nc(-c3ccc(C)cc3)nc3ccccc23)c(OC)c1,inactive: -3.01%
8,CCCCCn1c(C(C)NC(=O)c2ccccc2)nc2ccccc21 (stereo not drawn),inactive: -0.71%
9,CCOc1ccc(-c2nonc2NC(=O)COc2c(C)cc(C)cc2C)cc1OCC,inactive: -3.11%
10,COc1ccc2c(c1)c1c(c(=O)n(Cc3ccccc3)c(=O)n1CC(=O)NCc1ccccc1Cl)n2C,inactive: 3.47%
11,Cc1ccc(C)c(N2CCN(C(c3ccccc3)c3nnc(-c4ccccc4F)o3)CC2)c1 (stereo not drawn),inactive: 8.35%
12,CCOc1ccc(-c2ccc(NS(=O)(=O)c3ccc(C)cc3)cc2)nn1,inactive: -3.95%
13,Cc1cccn2c(=O)c(/C=C(\C#N)c3nc4ccccc4[nH]3)c(Oc3ccc(C(C)(C)C)cc3)nc12,inactive: 25%
14,O=C(CCc1nc(-c2cccs2)no1)Nc1cccc([N+](=O)[O-])c1,inactive: 9.48%
15,CCOc1ccc(Sc2cc(C(=O)NC(C)c3ccccc3)c3ccccc3n2)cc1 (stereo not drawn),inactive: 2.71%
16,Cc1ccsc1CN(C(=O)COc1ccc(Br)cc1)C1CCS(=O)(=O)C1 (stereo not drawn),inactive: 4.66%
17,Cc1ccc(OCC(=O)Nc2cc3nn(-c4ccccc4)nc3cc2C)cc1,inactive: 22.1%
18,Cc1ccc(C(=O)Nc2ccc(NC(=O)c3cccs3)cc2)cc1C,inactive: 5.72%
19,Cc1cc(Cl)ccc1NC(=O)C(=O)NCc1ccco1,inactive: -18.4%
20,Cc1ccc(OCC(=O)OCc2cc(=O)n3nc(-c4cccs4)sc3n2)cc1C,inactive: -3.99%
21,Cc1ccc(-c2nc3n(n2)C(=O)CC(c2ccc(Cl)cc2)S3)cc1 (stereo not drawn),inactive: -5.2%

row,SMILES,"activity change, negative = cytotoxicity"
1,Cc1cc(C)c(NC(=O)Cn2c(=O)n(-c3ccc(CC(=O)NCC4CCCO4)cc3)c(=O)c3ccccc32)c(C)c1 (stereo not drawn),inactive: 19.2%
2,O=C(NCc1ccc(F)cc1)c1cc2n(n1)CCCN(Cc1ccc(F)cc1)C2=O,inactive: -8.35%
3,Cc1ccc(C(=O)Nc2sc3c(c2C(=O)NCc2ccco2)CCC(C(C)(C)C)C3)cc1 (stereo not drawn),inactive: 13.8%
4,COc1ccc(N(C(=O)c2cccc(C)c2)S(=O)(=O)c2ccc(Cl)cc2)cc1,inactive: -1.03%
5,CCOc1cc(C(=O)N2CCn3c4c(c5cc(C)ccc53)CCCC42)cc(OCC)c1OCC (stereo not drawn),inactive: 17.3%
6,Fc1ccc2c(c1)-c1nc(-c3ccccc3)cc(-c3ccccc3)c1CO2,inactive: 13.1%
7,COc1cccc(C2C(C(=O)Nc3ccc(C)cc3C)=C(C)Nc3nc4ccccc4n32)c1OC (stereo not drawn),inactive: 13.9%
8,CC1(C)C(=O)N(CC(=O)Nc2ccc(Br)cc2F)c2ccccc21,inactive: -0.766%
9,CCOc1ccc(CNS(=O)(=O)c2ccc(-c3coc(C)n3)cc2)cc1,inactive: 2.43%
10,Cc1nc2ccc(S(=O)(=O)N(C)CC(=O)Nc3cccc(C(F)(F)F)c3)cc2s1,inactive: 6.43%
11,CCOC(=O)c1cc(S(=O)(=O)N2CCN(c3ccccc3F)CC2)[nH]n1,inactive: 4.8%
12,CCOc1ccc(OCC)c(NS(=O)(=O)c2ccc(-c3coc(C)n3)cc2)c1,inactive: -28.7%
13,Cn1c(=O)[nH]c(=O)c2c1nc(NCCc1ccccc1)n2Cc1ccc(F)cc1,inactive: -27.5%
14,CC(=O)N1CCC(N(Cc2ccc(C)o2)C(=O)Nc2ccc(C)cc2)CC1,inactive: 0.298%
15,CCOc1ccc2nc(NC(=O)c3nc(SC)ncc3Cl)sc2c1,inactive: 1.13%
16,CCOc1ccccc1NC(=O)Cc1noc2ccc(C)cc12,inactive: 5.03%
17,Cn1cc(S(=O)(=O)N2CCOCC2)cc1C(=O)Nc1ccc(Cl)c(C(F)(F)F)c1,inactive: -23.2%
18,Cc1cc(NC(=O)Nc2nnc(N(C)Cc3ccccc3)s2)ccc1Br,inactive: 13.5%
19,Cc1ccc(N(CC(=O)Nc2cccc(Cl)c2)S(=O)(=O)c2cccs2)cc1,inactive: -5.07%
20,CCN(Cc1ccccc1)S(=O)(=O)c1ccc2c(c1)CC(C)N2C(=O)C1CCC1 (stereo not drawn),inactive: -29.5%
21,CC(=O)C1=C(c2ccc(Cl)cc2)N(C(C)=O)n2c(nnc2C2CCCCC2)S1,inactive: 0.644%

row,SMILES,"activity change, negative = cytotoxicity"
1,COc1cccc(CNC(=O)c2cc3c(=O)oc4ccc(C)cc4c3s2)c1,inactive: -18.1%
2,Cc1ccc2c(c1)N(CCC(=O)NCc1ccccc1Cl)C(=O)CO2,inactive: -8.24%
3,O=c1c2oc3ccccc3c2n(Cc2ccccc2F)c(=O)n1Cc1ccccc1,inactive: 4.34%
4,Cc1ccc2onc(CC(=O)Nc3ccc(C(C)C)cc3)c2c1,inactive: 10.5%
5,Cn1c(=O)[nH]c2cc(-c3noc(-c4cccc(Cl)c4)n3)ccc21,inactive: 4.43%
6,CCCNC(=O)Cn1nc(-c2ccc(F)cc2)c2cnc3ccc(F)cc3c21,inactive: 3.82%
7,CCOc1cccc(C(=O)N(Cc2ccc(CC)cc2)C2CCS(=O)(=O)C2)c1 (stereo not drawn),inactive: 0.461%
8,COc1ccccc1NC(=O)CSC1=Nc2ccccc2C2=NC(CCC(=O)NCc3cccs3)C(=O)N12 (stereo not drawn),inactive: 1.17%
9,CCCCN(CC)C(=O)Cn1ncc2c3ccccc3n(CCC)c2c1=O,inactive: -5.74%
10,COc1ccc(-n2cc(C(=O)NCc3ccccc3Cl)c3ccccc3c2=O)cc1,inactive: 10.4%
11,CCC(C)NC(=O)c1cccc(NC(=O)c2nsc3ccccc23)c1 (stereo not drawn),inactive: 1.26%
12,COc1cc2nc(SCC(=O)Nc3ccccc3F)n3nc(-c4ccccc4)nc3c2cc1OC,inactive: -2.43%
13,COc1ccc(-c2nc3scc(CCNS(=O)(=O)c4ccc(NC(C)=O)cc4)n3n2)cc1,inactive: -16.5%
14,COc1ccccc1C(=O)N1CCN(Cc2cc(=O)oc3cc(C)ccc23)CC1,inactive: -14%
15,Cc1ccc(CNC(=O)c2ccc(CSCc3ccccc3C)o2)cc1,inactive: 2.68%
16,COc1ccc(-c2nc3ccc(NS(=O)(=O)c4ccc(Cl)cc4)cc3o2)cc1,inactive: -1.28%
17,CCc1ccc(NC(=O)CSc2nc3c(sc4ccccc43)c(=O)n2CCCOC(C)C)cc1,inactive: 0.571%
18,CCOc1ccc(-c2nc(Cn3ccn4nc(-c5ccc(OCC)c(Cl)c5)cc4c3=O)c(C)o2)cc1,inactive: -5.66%
19,Cc1ccccc1Nc1cc(C(=O)NCc2cccs2)c2ccccc2n1,inactive: -22.2%
20,CCOc1ccc(NCc2cccn2-c2nnc(N3CCC(C(=O)NCCOC)CC3)s2)cc1,inactive: 4.2%
21,C=C(C)Cn1c(=O)c2c(nc3n2CCN3c2ccc(F)cc2)n(C)c1=O,inactive: 4.1%
